Experimental data published in paper PMC12434519 (ACS Medicinal Chemistry Letters, 2025).

Legend:
SARS-CoV-2 NSP14 [1] = target: T1, SARS-CoV-2 NSP14 (Severe acute respiratory syndrome coronavirus 2, UniProt P0DTD1); experiment: biochemical; conditions: for NSP14 SARS COV2 : Hill slope: Sheet2
SARS-CoV-2 NSP14 [2] = target: T1, SARS-CoV-2 NSP14; conditions: for TM Replicate 1 (ºC) (NSP14+SAH+cmpd): NSP14+SAH 47; for TM Replicate 1 (ºC) (NSP14+SAH+cmpd) / TM (ºC) (NSP14+compound): SBVS hits; for TM (ºC) (NSP14+compound): NSP14 alone 43; for TM of NSP14 + SAH + compound (ternary complex) / TM of NSP14 + compound (absence of SAH): n = 3; for ∆TM (°C) / Average Tm NSP14 (ºC) + compound + SAH: HTS hits; for Average Tm NSP14 (ºC) + compound + SAH: NSP14 + SAH 48.0
[3] = LUM % inhibition, read-out: SARS-CoV-2 NSP14 inhibition: IC50
[4] = LUM % inhibition, read-out: SARS-CoV-2 NSP14 inhibition: Maximum response
[5] = fit of concentration-response curve
[6] = n = 3, read-out: IC50 for the inhibition of SARS-CoV-2 NSP14 (95% CI)
[7] = 0.75 h, read-out: NSP14 SARS COV2 : Maximum measured (%)
[8] = IC50 (µM), HTS hits, Suppl. Table 3 Sheet1
[9] = Sheet1, NSP14+SAH+compound vs NSP14+SAH
[10] = NSP14 SARS COV2 : IC50 (uM), HTS hits, Suppl. Table 3 Sheet2
[11] = HTS hits, Suppl. Table 3 Sheet2, read-out: NSP14 SARS COV2 : IC50
[12] = HTS hits, Suppl. Table 3 Sheet1, read-out: IC50

| SMILES | IC50 (SARS-CoV-2 NSP14 [1]; [3]) [µM] | Emax (SARS-CoV-2 NSP14 [1]; [4]) [%] | SARS-CoV-2 NSP14 inhibition: Hill slope (SARS-CoV-2 NSP14 [1]; SBVS hits) | SARS-CoV-2 NSP14 inhibition: Hill slope (SARS-CoV-2 NSP14 [1]; [5]) | IC50 (SARS-CoV-2 NSP14 [1]; [6]) [µM] | TM Replicate 1 (ºC) (NSP14+SAH+cmpd) (SARS-CoV-2 NSP14 [2]) | TM (ºC) (NSP14+compound) (SARS-CoV-2 NSP14 [2]) | Emax (SARS-CoV-2 NSP14 [1]; [7]) [%] | NSP14 SARS COV2 : Hill slope (SARS-CoV-2 NSP14 [1]; HTS hits) | ∆TM (°C) (SARS-CoV-2 NSP14 [2]; [9]) | ∆TM (°C) (SARS-CoV-2 NSP14 [2]; Sheet2, compound + SAH vs SAH) | Average Tm NSP14 (ºC) + compound + SAH (SARS-CoV-2 NSP14 [2]) | other results |
| --- | --- | --- | --- | --- | --- | --- | --- | --- | --- | --- | --- | --- | --- |
| Cc1nc(C)c(C(=O)NCc2ccc(CNC(=O)c3ccc(O)c(F)c3)cc2)nc1C [RU-0834080, CC1=NC(C)=C(C)N=C1C(=O)NCC1=CC=C(CNC(=O)C2=CC(F)=C(O)C=C2)C=C1] | 5.82 | 81.3 | 1.14 | 1.14 | 5.8 | 48.5 ºC | 43 ºC |  |  |  |  |  |  |
| Cc1cnc(C(=O)NCc2ccc(CNC(=O)c3ccc(O)c(C)c3)cc2)c(C)c1 [RU-0834201, CC1=CC(C)=C(C(=O)NCC2=CC=C(CNC(=O)C3=CC=C(O)C(C)=C3)C=C2)N=C1] | 3.01 | 92.9 | 1.22 | 1.22 | 3 | 49 ºC | 43 ºC |  |  |  |  |  | TM of NSP14 + SAH + compound (ternary complex) (SARS-CoV-2 NSP14 [2]; DSF, NSP14 + SAH 47.3 °C): 49.0 ± 0.0 °C and 49.0 °C; TM of NSP14 + compound (absence of SAH) (SARS-CoV-2 NSP14 [2]; DSF, NSP14 alone […]): 42.5 ± 0.5 °C |
| Cc1cc(OCC(=O)N[C@@H](Cc2ccccc2)C(=O)O)c2c3c(c(=O)oc2c1)CCCC3 [RU-0349688, CC1=CC(OCC(=O)N[C@@H](CC2=CC=CC=C2)C(O)=O)=C2C3=C(CCCC3)C(=O)OC2=C1] |  |  |  |  |  |  |  | 86.6 | 0.97 | 2.0 | 2.0 | 50.0 ºC | IC50 (SARS-CoV-2 NSP14 [1]; [8]): 8.79 µM |
| Cc1ccc(NS(=O)(=O)c2ccc(-c3coc(C)n3)cc2)c(Br)c1 [RU-0373469, CC1=NC(C2=CC=C(S(=O)(=O)NC3=C(Br)C=C(C)C=C3)C=C2)=CO1] |  |  |  |  |  |  |  | 78.1 | 0.931 | 1.2 | 1.2 | 49.2 ºC | IC50 (SARS-CoV-2 NSP14 [1]; [8]): 6.42 µM; IC50 (SARS-CoV-2 NSP14 [1]; [10]): 6.83 µM |
| COC(=O)c1ccc(Cl)c(NS(=O)(=O)c2c(C)cc(N3C(=O)CCS3(=O)=O)cc2C)c1 [RU-0347319, COC(=O)C1=CC(NS(=O)(=O)C2=C(C)C=C(N3C(=O)CCS3(=O)=O)C=C2C)=C(Cl)C=C1] |  |  |  |  |  |  |  | 92.8 | 0.679 | 2.8 | 2.8 | 50.8 ºC | IC50 (SARS-CoV-2 NSP14 [1]; [11]): 2.84 µM |
| Cc1cc(OCC(=O)N[C@@H](Cc2ccccc2)C(=O)O)c2c3c(c(=O)oc2c1)CCC3 [RU-0349619, CC1=CC(OCC(=O)N[C@@H](CC2=CC=CC=C2)C(O)=O)=C2C3=C(CCC3)C(=O)OC2=C1] |  |  |  |  |  |  |  | 87.8 | 0.81 | 2.0 | 2.0 | 50.0 ºC | IC50 (SARS-CoV-2 NSP14 [1]; [8]): 7.84 µM; IC50 (SARS-CoV-2 NSP14 [1]; [10]): 6.21 µM |
| Cc1nccc(C(=O)NCC2CCC3(CN(C(=O)c4cc(C)c5[nH]ncc5c4)C3)O2)c1C (centres unmarked) [RU-0834173, CC1=C2C(=CC(C(=O)N3CC4(C3)CCC(CNC(=O)C3=C(C)C(C)=NC=C3)O4)=C1)C=NN2] | 5.29 | 88.5 | 1.06 | 1.06 | 5.3 | 48 ºC | 43 ºC |  |  |  |  |  | TM of NSP14 + SAH + compound (ternary complex) (SARS-CoV-2 NSP14 [2]; DSF, NSP14 + SAH 47.3 °C): 49.3 °C |
| Cc1cc(C)c(C(=O)NCc2ccc(CNC(=O)c3ccc(O)c(C)c3)cc2)cn1 [RU-0834181, CC1=CC(C(=O)NCC2=CC=C(CNC(=O)C3=CN=C(C)C=C3C)C=C2)=CC=C1O] | 4.74 | 87.6 | 1.04 | 1.04 | 4.7 | 48 ºC | 43 ºC |  |  |  |  |  |  |
| COc1ccc2nc(-c3ccc(NS(=O)(=O)c4ccc5c(c4)CC(=O)N5C)cc3)sc2c1 [RU-0385437, COC1=CC=C2N=C(C3=CC=C(NS(=O)(=O)C4=CC=C5N(C)C(=O)CC5=C4)C=C3)SC2=C1] |  |  |  |  |  |  |  | 92 | 1.23 | 0.8 | 0.8 | 48.8 ºC | IC50 (SARS-CoV-2 NSP14 [1]; [12]): 1.58 µM; IC50 (SARS-CoV-2 NSP14 [1]; [11]): 1.8 µM |
| Cc1ccc(C)c(C(=O)NCC2CCC3(CN(C(=O)c4cc(C)c(O)c(C)c4)C3)O2)c1C (centres unmarked) [RU-0834178, CC1=CC(C(=O)N2CC3(C2)CCC(CNC(=O)C2=C(C)C=CC(C)=C2C)O3)=CC(C)=C1O] |  |  |  |  |  | 49 ºC | 43 ºC |  |  |  |  |  | TM of NSP14 + SAH + compound (ternary complex) (SARS-CoV-2 NSP14 [2]; DSF, NSP14 + SAH 47.3 °C): 49.3 ± 0.3 °C; TM of NSP14 + compound (absence of SAH) (SARS-CoV-2 NSP14 [2]; DSF, NSP14 alone […]): 42.7 ± 0.6 °C |
| Cc1ccc(SCCNC(=O)C2CCN(S(C)(=O)=O)c3cc(C)ccc3O2)cc1 (centres unmarked) [RU-0377187, CC1=CC=C(SCCNC(=O)C2CCN(S(C)(=O)=O)C3=CC(C)=CC=C3O2)C=C1] |  |  |  |  |  |  |  | 83.5 | 0.583 | 1.2 | 1.2 | 49.2 ºC | IC50 (SARS-CoV-2 NSP14 [1]; [12]): 9.3 µM |
| CN(C)c1ccc(N2C(=O)CSC2c2cccc(NC(=O)Cc3cccs3)c2)cc1 (centres unmarked) [RU-0054512, N(C(CC1=CC=CS1)=O)C1=CC=CC(C2SCC(=O)N2C2=CC=C(N(C)C)C=C2)=C1] |  |  |  |  |  |  |  | 83.6 | 1 | 1.5 | 1.5 | 49.5 ºC | IC50 (SARS-CoV-2 NSP14 [1]; [12]): 5.46 µM |
| O=C(CSc1ncc(S(=O)(=O)c2ccc(Cl)cc2)c(=O)[nH]1)N1CCCc2ccccc21 [RU-0152463, C1(S(C2=CC=C(Cl)C=C2)(=O)=O)=CN=C(SCC(N2C3=C(CCC2)C=CC=C3)=O)NC1=O] |  |  |  |  |  |  |  | 90.3 | 0.681 | 2.5 | 2.5 | 50.5 ºC | IC50 (SARS-CoV-2 NSP14 [1]; [12]): 3.98 µM |
| Cc1cc(C(=O)NCc2ccc(C(=O)NC(C)c3ccccc3C)nc2)ccc1O (centres unmarked) [RU-0834146, CC1=CC(C(=O)NCC2=CN=C(C(=O)NC(C)C3=C(C)C=CC=C3)C=C2)=CC=C1O] | 5.76 | 85.4 | 1.13 | 1.13 | 5.8 | 48 ºC | 43 ºC |  |  |  |  |  | TM of NSP14 + SAH + compound (ternary complex) (SARS-CoV-2 NSP14 [2]; DSF, NSP14 + SAH 47.3 °C): 48.3 ± 0.3 °C and 48.3 °C; TM of NSP14 + compound (absence of SAH) (SARS-CoV-2 NSP14 [2]; DSF, NSP14 alone […]): 42.7 ± 0.3 °C |
| C[C@@H](NC(=O)c1ccc(CNC(=O)c2ccc3[nH]ncc3c2)cc1)c1cccc(O)c1 [RU-0834179, C[C@@H](NC(=O)C1=CC=C(CNC(=O)C2=CC=C3NN=CC3=C2)C=C1)C1=CC(O)=CC=C1] | 5.82 | 90.9 | 1.08 | 1.08 | 5.8 | 48 ºC | 43 ºC |  |  |  |  |  |  |
| Cc1c(S(=O)(=O)N2CCc3[nH]ncc3C2)cc(C(=O)NCc2c(F)ccc3occc23)n1C [TDI-015051] |  |  |  |  |  |  |  |  |  |  |  |  | TM of NSP14 + SAH + compound (ternary complex) (SARS-CoV-2 NSP14 [2]): 64.8 °C; TM of NSP14 + compound (absence of SAH) (SARS-CoV-2 NSP14 [2]): did not increase |
| COc1ccccc1CNC(=O)c1cc(S(=O)(=O)N2CCC(C)CC2)c(C)n1C [RU-0415529, COC1=CC=CC=C1CNC(=O)C1=CC(S(=O)(=O)N2CCC(C)CC2)=C(C)N1C] |  |  |  |  |  |  |  |  |  | 5.0 | 5.0 | 53.0 ºC |  |
| CCc1cc(F)ccc1C(=O)NCCc1ccc(CNC(=O)c2ccn3nccc3c2)cc1 [RU-0834194] | 10.4 | 61.1 |  | 1.08 |  |  |  |  |  |  |  |  |  |

“And” between values parts separate entries of the source, which are not always exact repeats. Identical values can stand only once. Like-named read-outs stand apart in the source and are kept apart here.
